Reference: ChEMBL document CHEMBL1201862, “PubChem BioAssay data set” (2004)
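Where inhibition never reached the appropriate level, the endpoint shown equals the highest concentration tested. Otherwise, values were interpolated linearly from a five-concentration, 48-hour dose response in 96-well plates. Here, GI50 denotes the concentration required for 50% inhibition of growth.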 The source made the active and inactive calls. No stated cut-off is given here; in the data, active = GI50 up to about 1.1 µM and inactive = higher.

test system: NCI-H322M; assay: DTP human tumour cell line panel, 48 h

| SMILES | GI50 |
| --- | --- |
| Cn1c(=O)cc(NCCc2ccccc2)[nH]c1=O | inactive: 53.1 µM |
| CC1(C)CC(=O)C(C(c2cccc(O)c2O)C2C(=O)CC(C)(C)CC2=O)C(=O)C1 | inactive: > 100 µM |
| O=[N+]([O-])c1ccc(C[S+]([O-])Cc2ccccc2)cc1 (stereo not drawn) | inactive: > 100 µM |
| CC(C)Cc1ccc(C(C)CC2=CCC(CN(C)C)C2=O)cc1 (stereo not drawn) | inactive: 17.5 µM |
| N#Cc1c(N)nc(Sc2ccccc2N)c(C#N)c1-c1ccc(Cl)cc1 | inactive: 19.3 µM |
| O=C(Cn1c2c(c3ccccc31)CCCC2)NC1CCCCC1 | inactive: > 100 µM |
| Cc1cc2ccc(OC(=O)c3ccc(NC(=N)N)cc3)cc2oc1=O | inactive: 94.8 µM |
| O=C(c1ccccc1)c1c(-c2ccccc2)sc2nc3ccccc3nc12 | inactive: > 100 µM |
| N#Cc1cc(Sc2ccc(N)c(C#N)c2)ccc1N | inactive: 18.1 µM |
| CN(C)CCNC(=O)c1ccc(C(=O)NCCN(C)C)c2nc3ccccc3cc12 | active: 0.656 µM |
| COC1=CC(=O)c2c(cc3c(c2O)-c2c(OC)cc4cc5c(c(O)c4c2OC(=O)CC(C)(O)C3)C(=O)CC(C)(O)C5)C1=O (stereo not drawn) | inactive: 1.91 µM |
| COc1c(C)c(C/C=C(\C)CC/C=C(\C)CCC=C(C)C)c(OC)c(OC)c1OC | inactive: > 100 µM |
| COc1cc([C@@H]2c3cc(O)c(OC)cc3C=C(C(N)=O)[C@H]2C(N)=O)ccc1O | inactive: > 100 µM |
| COc1cc2c(cc1OC)-c1cc(OC)c(OC)cc1[C@H]1CN3CCC[C@@]3(O)C=C21 | active: < 0.0001 µM |
| CCCC(=O)N(C(=O)CCC)C1=C(Cl)C(=O)c2ccccc2C1=O | inactive: 44.6 µM |
| NC(=O)c1ncn(Cc2ccccc2)c1CNC(N)=S | inactive: > 100 µM |
| COc1ccc(N2C(=O)c3cccnc3S2(=O)=O)cc1 | inactive: > 100 µM |
| O=C1CCC[C@H]2O[C@@H](COCc3ccccc3)C[C@@H]12 | inactive: > 100 µM |
| COC1=CC(O)(CC(N)=O)c2ccccc2C1=O (stereo not drawn) | inactive: > 100 µM |
| C=CCC1(CN(C)C)CC/C(=C\c2ccc(Cl)cc2)C1=O (stereo not drawn) | inactive: > 85.3 µM |
| CCCCC(=O)OC[n+]1ccc(-c2c(COC(=O)NC(C)C)c(COC(=O)NC(C)C)c3n2CCC3)cc1 | inactive: > 100 µM |
| COC(=O)C(CC(C)C)NC(=O)NC12CC3CC(CC(F)(C3)C1)C2 (stereo not drawn) | inactive: > 100 µM |
| CCOC(=O)CCC(NC(=O)c1ccc(OCc2ccc3nc(OC)c(OC)nc3c2)cc1)C(=O)OCC (stereo not drawn) | inactive: 80.4 µM |
| C[C@@H]1S[C@H](c2ccccc2F)N2Cc3ccccc3N=C12 | inactive: 32.4 µM |

| SMILES | GI50 |
| --- | --- |
| O=S(=O)(Oc1ccc2ccccc2c1-c1c(OS(=O)(=O)C(F)(F)F)ccc2ccccc12)C(F)(F)F | inactive: > 100 µM |
| O=c1c(O)c(-c2ccccc2)n(O)c2ccc(Cl)cc12 | inactive: 35.2 µM |
| COc1ccc(Cc2nn(C3OC(COC(C)=O)C(OC(C)=O)C(OC(C)=O)C3OC(C)=O)c(=S)n(-c3ccc(OC)cc3)c2=O)cc1 (stereo not drawn) | inactive: > 100 µM |
| O=C(NC(Cc1ccc(Cl)cc1)C(=O)O)c1ccc(I)cc1 (stereo not drawn) | inactive: > 100 µM |
| CC(=O)NC(C)(C)C1CC=C(C)CC1 (stereo not drawn) | inactive: > 100 µM |
| C=C(Cl)c1c(OC)cccc1OCc1ccccc1 | inactive: > 100 µM |
| O=C1CSC(/C(=C\c2ccc(Cl)cc2)c2nc3ccccc3[nH]2)=N1 | inactive: 5.2 µM |
| CC(=O)OC[C@@H](OC(C)=O)[C@@H](OC(C)=O)[C@H]1OC[C@@H]2C[C@H]([C@H]1OC(C)=O)N(Cc1ccccc1)O2 | inactive: > 100 µM |
| O=c1c2cc([N+](=O)[O-])ccc2[nH]n1Cc1ccccn1 | inactive: > 100 µM |
| S=C1CC(c2ccccc2)Sc2cc(Cl)ccc2N1 (stereo not drawn) | inactive: 7.05 µM |
| COc1cc(C2C(Cl)C(=O)N2NC(=O)c2ccc(N)cc2)cc(Br)c1O (stereo not drawn) | inactive: 15.4 µM |
| CC1=CCCC2C1(C)CCC(C)C2(C)Cc1cc(O)ccc1O (stereo not drawn) | inactive: 7.55 µM |
| CCN1c2cc(Br)cc3[nH]c(=O)n(c23)CCC1C (stereo not drawn) | inactive: 18.5 µM |
| C/C(CC(O)(C(F)(F)F)C(F)(F)F)=N\N | inactive: > 10 µM |
| CSc1ccc(C=C2N=C(c3ccccc3)N(c3cc(C(=O)c4ccccc4)ccc3N3C(=O)/C(=C/c4ccc(SC)cc4)N=C3c3ccccc3)C2=O)cc1 | inactive: > 100 µM |
| CCC1CN2CCC3(c4ccccc4)CC(C(=O)OC)=CC1C23 (stereo not drawn) | inactive: 16.7 µM |
| CC12CC3CC/C(=N\O)C(C1)C3(N1CCOCC1)C/C2=N/O (stereo not drawn) | inactive: > 100 µM |
| Cn1c2ccccc2n2c(=O)c3cccnc3c(C#N)c12 | inactive: > 100 µM |
| CCCCS(=O)(=O)Nc1ccc(Nc2c3ccccc3nc3ccccc23)c(OC)c1 | inactive: 10.8 µM |
| C=C(Br)CN(CC(=C)Br)C(C)=O | inactive: > 100 µM |
| COc1cc(OC)c(Oc2cccc(OC)c2OC)c(OC)c1 | inactive: > 100 µM |
| C[N+](C)(C)CC1CCCC/C1=N\OC(=O)c1ccccc1 (stereo not drawn) | inactive: > 100 µM |
| Fc1cccc(C2SCC3=Nc4ccccc4CN32)c1 (stereo not drawn) | inactive: 39.7 µM |
| NC1=Nc2ccccc2Sc2nccn21 | inactive: 35.6 µM |

| SMILES | GI50 |
| --- | --- |
| COc1ccc2c(c1)-c1[nH]c3ccc(OC)cc3c1CC2 | inactive: 15.9 µM |
| CC(=O)Oc1cc(C(F)(F)F)ccc1C(=O)OC1(C)OC(=O)c2ccc(C(F)(F)F)cc2O1 (stereo not drawn) | inactive: > 100 µM |
| C/N=C(\NC(=S)N(C)C)N(C)C | inactive: > 100 µM |
| Cc1cccc(CC(Cc2c(C)cccc2C(=O)O)C(=O)O)c1 (stereo not drawn) | inactive: > 100 µM |
| CC[C@@]1(O)C(=O)OCc2c1cc1n(c2=O)Cc2c-1nc1ccccc1c2/C=N\NC(=O)C(N)Cc1c[nH]c2ccccc12 (stereo partly drawn) | inactive: 2 µM |
| Clc1cccc(Cl)c1C1ON=C(c2ccccc2)N1C12CC3CC(CC(C3)C1)C2 (stereo not drawn) | inactive: > 100 µM |
| O=C1CNCCCN2CCN(CCCNCC(=O)Nc3ccc(cc3)S(=O)(=O)c3ccc(cc3)NC(=O)CNCCCN3CCN(CCCNCC(=O)Nc4ccc(cc4)S(=O)(=O)c4ccc(cc4)N1)CC3)CC2 | inactive: 64.7 µM |
| CC(C)/C(=N\[N+](C)(C)C)c1ccccc1 | inactive: > 100 µM |
| CC1=C(C(=O)N[C@@H](CC(C)C)C(=O)O)N2C(=O)[C@@H](NC(=O)[C@@H](N)Cc3ccccc3)[C@H]2SC1 | inactive: > 100 µM |
| CNC(=O)OCc1nc(N=[N+]=[N-])n(C)c1COC(=O)NC | inactive: 85.5 µM |
| Nn1c(Cc2ccc([N+](=O)[O-])cc2)n[nH]c1=O | inactive: > 100 µM |
| CC(C)[Si]1(C(C)C)OCC2OC(n3ccc(=O)[nH]c3=O)C(O)(CO)C2O[Si](C(C)C)(C(C)C)O1 (stereo not drawn) | inactive: 17 µM |
| C/C(Cl)=N/OC(=O)Nc1ccc(F)c([N+](=O)[O-])c1 | inactive: 21.7 µM |
| CC1=NN(c2ccccc2)C(=O)C1C(=O)C(=O)Nc1ccc(C)cc1C (stereo not drawn) | inactive: > 100 µM |
| COC(OC)C1OCC(n2cc(F)c(=O)[nH]c2=O)C1O (stereo not drawn) | inactive: > 100 µM |
| O=C1c2ccccc2CC1C1(O)C(=O)Nc2ccccc21 (stereo not drawn) | inactive: > 100 µM |
| CN(C)CCC(C#N)(c1ccccc1)c1ccccc1 | inactive: > 100 µM |
| O=C1Nc2ccccc2/C1=C1/Nc2ccccc2/C1=N/OCCOCCO | active: 0.959 µM |
| COc1c2c(cc3nc4ccccc4nc13)CC[C@H](NC(C)=O)c1cc(=O)c(SC)ccc1-2 | inactive: 7.76 µM |
| O/N=C1/CCCC/C1=C/C=C/c1ccccc1 | inactive: 20.9 µM |
| O=C1NC2=NN=C(c3ccc(Br)cc3)CN2NC12c1ccccc1-c1ccccc12 | inactive: > 100 µM |
| CCOC(=O)C(Cc1ccc(N(CCCl)CCCl)cc1)NC(=O)C(Cc1ccccc1)NC=O (stereo not drawn) | active: 0.34 µM |
| COc1cc([C@@H]2c3cc4c(cc3[C@@H](NC(=O)c3ccc(C#N)cc3)C3COC(=O)[C@@H]32)OCO4)cc(OC)c1O (stereo partly drawn) | inactive: 2.72 µM |
| O=C(C/C(CCC(=O)N(Cc1ccccc1)Cc1ccccc1)=N/Nc1ccc([N+](=O)[O-])cc1[N+](=O)[O-])c1ccccc1 | inactive: > 100 µM |

| SMILES | GI50 |
| --- | --- |
| O=C(c1cccnc1)N1N=C(c2ccc3c(c2)OCO3)CC1(O)c1cc(F)c(Cl)cc1Cl (stereo not drawn) | inactive: 21.7 µM |
| COc1cc(C(=O)C2C(=O)c3ccccc3C2C2(O)c3ccccc3CC2C(O)c2cc(OC)c(OC)c(OC)c2)cc(OC)c1OC (stereo not drawn) | inactive: > 100 µM |
| CN1CCN(c2ccc3nc(C4=C(O)C(=O)[C@@H]5C(=C4O)N=C(CO)N5C)[nH]c3n2)CC1 | inactive: 33 µM |
| CC[C@H](C)N(CCN)C(=O)c1cc2ccccc2c(-c2ccccc2Cl)n1 | inactive: 13.5 µM |
| NNC(=O)/C(=C/c1ccc(Cl)c(Cl)c1)NC(=O)c1ccccc1 | inactive: > 100 µM |
| O=C1Nc2c(Cl)cc(Cl)cc2/C1=N/N=C/c1ccco1 | inactive: 55 µM |
| Nc1nonc1-c1noc(-c2nonc2N)[n+]1[O-] | inactive: > 100 µM |
| CCN(CC)c1c(-c2c(OC(C)C)c(=O)c2=O)c(=O)n2ccsc2c1OC(C)=O | inactive: > 100 µM |
| CC(OC(=O)NCn1cc(-c2ccccc2)nn1)c1ccccc1 (stereo not drawn) | inactive: > 100 µM |
| C#CC[N+](C)(CC#C)CC#C | inactive: > 100 µM |
| COc1cc2c(c(OC)c1OC)C(=O)[C@@H]1[C@H]2N1C(N)=O | inactive: 89.3 µM |
| C#Cc1cccc(N2C(=O)CCC2=O)c1 | inactive: 18.8 µM |
| O=C1Oc2cc3c(c4cccc1c24)OCN(c1ccc(Cl)cc1)C3 | inactive: > 67 µM |
| O=c1ssc(Cl)c1Nc1c(Cl)ssc1=O | inactive: 19.2 µM |
| COc1ccc(OCC(=O)O)c2c1CCC(C(C)C)C2=O (stereo not drawn) | inactive: > 100 µM |
| c1ccc(/N=C2\c3ccccc3CN2c2ccccc2)cc1 | inactive: > 100 µM |
| CCNc1cc2oc(=O)cc(C(F)(F)F)c2cc1C | inactive: > 100 µM |
| CC(c1ccccc1)C(O)S(=O)(=O)O (stereo not drawn) | inactive: > 100 µM |
| C[Si](C)(OCCS(=O)(=O)O)C1(Cc2cccc3ccccc23)S(=O)(=O)OCCOS1(=O)=O | inactive: 21 µM |
| CN(C)CCCNc1ccc2nnn3c4ccc([N+](=O)[O-])cc4c(=O)c1c23 | active: 1.06 µM |
| CC[C@@]1(O)C(=O)OCc2c1cc1n(c2=O)Cc2cc3cc(OC)ccc3nc2-1 | active: 0.129 µM |
